Source: paper PMC6919601, “Identification of Plasmodium dipeptidyl aminopeptidase allosteric inhibitors by high throughput screening” (PLoS ONE, 2019)
Among all 110,000 compounds or so, about 230 (0.21%) showed an effect of 50% or more. The list shows a part of the results.

target: DPAP1 (Plasmodium falciparum, UniProt Q8IIJ9); experiment: primary screen, percent inhibition; read by cleavage of a fluorogenic dipeptide substrate; higher = more effect of the substance; set-up: species or system P. falciparum D10 trophozoite lysates; single well
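Further: 30 min substrate incubation versus DMSO and 10 µM JCP410 controls.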

DPAP1, sequence (Q8IIJ9 whole entry, looked up): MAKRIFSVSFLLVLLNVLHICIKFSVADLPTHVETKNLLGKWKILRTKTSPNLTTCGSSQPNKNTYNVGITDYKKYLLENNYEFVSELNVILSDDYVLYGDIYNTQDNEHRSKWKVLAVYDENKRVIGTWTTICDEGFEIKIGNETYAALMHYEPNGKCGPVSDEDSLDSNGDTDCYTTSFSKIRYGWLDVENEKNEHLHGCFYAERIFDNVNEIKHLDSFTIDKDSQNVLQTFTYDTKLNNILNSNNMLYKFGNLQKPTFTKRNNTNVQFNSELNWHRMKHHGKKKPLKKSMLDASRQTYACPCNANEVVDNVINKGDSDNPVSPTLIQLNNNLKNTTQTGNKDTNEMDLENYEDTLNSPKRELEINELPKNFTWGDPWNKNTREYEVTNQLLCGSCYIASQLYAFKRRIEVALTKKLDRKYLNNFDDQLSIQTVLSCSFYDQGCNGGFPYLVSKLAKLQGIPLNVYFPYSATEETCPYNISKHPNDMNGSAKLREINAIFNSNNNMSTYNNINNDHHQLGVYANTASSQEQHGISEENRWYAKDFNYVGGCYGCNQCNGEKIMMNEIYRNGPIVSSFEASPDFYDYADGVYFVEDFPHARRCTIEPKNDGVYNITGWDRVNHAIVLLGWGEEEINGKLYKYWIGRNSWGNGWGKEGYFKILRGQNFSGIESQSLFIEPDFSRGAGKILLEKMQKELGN

SMILES	% Inhibition @ 10 uM
CC(=O)N1CCC2(CC1)CC(=O)c1cc(OCC(=O)NCc3ccco3)ccc1O2	-0.601%
Cc1cc(Cl)nc(Cl)c1C(=O)N1CCCCC1	1.03%
Cc1ccc2[nH]c3c(c2c1)CCCC3N (centres unmarked)	5%
Cc1c(NC(=O)Cn2nc(C(F)(F)F)cc2C2CC2)cnn1C	0.709%
O=C(NCc1ccco1)C1(c2ccccc2)CCOCC1	-4.43%
CCOC(=O)C1=CC(=C2C(=O)NC(=O)NC2=O)c2ccccc2O1	2.03%
Fc1ccc(N2N=C(c3ccc(Cl)cc3)CC2c2cccs2)c(F)c1 (centres unmarked)	-4.4%
O=C(c1ccc(-c2ccccc2)cc1)N1N=C(C(F)F)CC1(O)C(F)F (centres unmarked)	1.34%
CCCC[C@H](NC(=O)[C@H](CS(=O)(=O)Cc1ccccc1OC(F)F)NC(=O)N1CCOCC1)C(=O)c1nc2ncccc2o1	-5.2%
COc1cc(C2NCCc3c2[nH]c2ccccc32)cc(OC)c1O (centres unmarked)	4.89%
CN(C)CCN(C(=O)c1ccccc1Br)c1nc2c(Cl)cccc2s1	-4.16%
COCCN1C(=O)c2oc3cc(C)c(C)cc3c(=O)c2C1c1ccc(O)cc1 (centres unmarked)	-2.91%
Cc1ccccc1-n1nc2c(c1NC(=O)C(C)C)CS(=O)(=O)C2	-0.195%
CCn1c2ccccc2c2nnc(SCc3ccccc3Cl)nc21	2.91%
COc1ccccc1-n1c(C)ccc1C	-0.183%
CCN1CCN(c2c(S(=O)(=O)c3ccc(C)c(C)c3)cnc3ccccc23)CC1	-6.24%
C=Cc1ccc(Cn2c(C)c(CNCc3ccc(OC)cc3)c(C(=O)O)c2C)cc1	4.53%
O=C(Nc1sc2c(c1C(=O)O)CCC2)c1ccc(F)cc1	3.9%
Cc1nc2ncnn2c(O)c1NS(=O)(=O)c1ccc(F)cc1	-5.29%
O=C(Cn1ccc2ccccc2c1=O)NCCC(=O)NC1CCN(Cc2ccccc2)CC1	5.12%
COc1cc2c(cc1OC)C(c1cccc(Cl)c1Cl)NC(=O)C2 (centres unmarked)	6.66%
COc1ccccc1NC(=O)C(C)c1cccc(C(=O)c2ccccc2)c1 (centres unmarked)	0.331%
CC(=O)Nc1nonc1-c1nc2ccccc2n1Cc1ccccc1Cl	0.661%
COC(=O)c1ccc(CN(CCN(C)C)Cc2ccccc2)cc1	-3.8%
N#CC1=C(N)Oc2[nH]nc(-c3ccc(Cl)c(Cl)c3)c2C1c1ccc2c(c1)OCO2 (centres unmarked)	7.01%

SMILES	% Inhibition @ 10 uM
O=C(COc1ccccc1)Nc1cc(C(F)(F)F)cc(C(F)(F)F)c1	-6.64%
CCOc1cccc(C(=O)Nc2nonc2-c2ccc(OCC)c(OCC)c2)c1	-3.24%
CCCSc1ncc(Cl)c(C(=O)Nc2nc3ccc(S(C)(=O)=O)cc3s2)n1	1.25%
CCOC(=O)c1ccc(NC=C2C(=O)NC(=S)NC2=O)cc1	-3.48%
COc1ccccc1OCCNC(=O)c1cccc2ccccc12	14.4%
Cc1c(N)ccc(-n2nc3ccccc3n2)c1C	-3.49%
Cc1ccc(-c2noc(-c3ccccc3C)n2)cc1	-1.47%
Cc1ccc(C)c(-c2csc(Nc3ccc(Br)cc3)n2)c1	-2.28%
COc1cc(/C=C2\SC(Nc3ccc(Br)cc3)=NC2=O)cc(OC)c1O	11.7%
O=C(NCCO)c1cc2ccccc2c(=O)s1	-5.51%
Cc1ccc2c(CNCCc3cccs3)c(C(=O)O)n(Cc3ccc(F)cc3)c2c1	-2.39%
CCC(=O)N1c2ccccc2N=C2CC(C)(C)CC(O)=C2C1c1cccnc1 (centres unmarked)	-8.36%
CCC1C(=O)N=C(SCC(=O)Nc2nc(-c3ccccc3)cs2)NC1=O (centres unmarked)	-4.24%
COc1ccc(N2C(=O)C(O)=C(C(=O)c3ccc(C)cc3)C2c2cc(OC)ccc2OC)cc1 (centres unmarked)	5.12%
Clc1ccc(OCCCCOc2ccc(Cl)cc2)cc1	1.35%
CCOCCCNS(=O)(=O)c1c(C)nc2sccn2c1=O	-3.74%
CCOc1ccc(C2c3c(-c4ccccc4O)n[nH]c3C(=O)N2Cc2cccnc2)cc1 (centres unmarked)	3.27%
COCCCN1C(=O)C(O)=C(C(=O)c2cccs2)C1c1ccc(F)cc1 (centres unmarked)	0.163%
CC(O)C(=O)NCCOCCOCCNC(=O)C(C)O (centres unmarked)	5.44%
CC(c1ccccc1)n1cncc1C(=O)O (centres unmarked)	2.22%
COc1cc(N(C)C)c(NC(C)=O)cc1C(=O)O	-3.16%
CC(c1c(N)n(C)c(=O)n(C)c1=O)c1c(N)n(C)c(=O)n(C)c1=O	4.03%
Clc1ccccc1N1CCN(Cc2ccccc2Br)CC1	-1.92%
Cc1cc(NC(=O)c2cc(-c3ccccc3F)no2)no1	-1.78%
Cc1ccsc1CCNC(=O)CCc1nnc2ccc(N3CCC(C)CC3)nn12	-5.54%
